Experimental data: the supplement of paper PMC9151546
Most values come without repeats; read them as rough.

Assays:
[1] = tested on: CHO-K1; assay: hypodiploid nuclei frequency (% of nucleated events); higher = more hypodiploid events (aneugenic)
Method: (§1)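 Flow-cytometric in vitro micronucleus assay (Litron MicroFlow) in CHO-K1 cells in 96-well plates, 19 concentrations (4.5-200 µM, n=1 per concentration). Without S9, cells were exposed for 24 h and sampled at 48 h. With Aroclor 1254-induced rat liver S9, cells were exposed for 3-4 h and sampled at 27-28 h. Read-outs are %MN and %hypodiploid nuclei relative to nucleated events, and relative survival as the nuclei-to-bead ratio versus the 1% DMSO vehicle control (x100).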

[2] = tested on: CHO-K1; assay: relative survival (nuclei to bead ratio vs DMSO control) (% of vehicle control); higher = more surviving cells
Method: as §1

[3] = tested on: CHO-K1; assay: micronucleus frequency (% of nucleated events); higher = more micronuclei (genotoxic)
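Wherever hypodiploid nuclei frequency (% of nucleated events) is given: hypodiploid nuclei gated on a flow cytometer with 488 nm excitation after SYTOX Green staining, cultures at 37 °C, positive controls vinblastine without S9 and cyclophosphamide with S9.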
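Wherever micronucleus frequency (% of nucleated events) is given: cells lysed with nuclei stained by SYTOX Green, then micronucleus-gated events counted against nucleated events by flow cytometry with 488 nm excitation.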
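Wherever relative survival (nuclei to bead ratio vs DMSO control) is given: Lysed-cell nuclei stained with SYTOX Green and counted against counting beads by flow cytometry at 488 nm excitation, with vinblastine (no S9) and cyclophosphamide (plus S9) as positive controls.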

ClC1(Cl)C2(Cl)C3(Cl)C4(Cl)C(Cl)(Cl)C5(Cl)C3(Cl)C1(Cl)C5(Cl)C24Cl (stereo not drawn) [Mirex]
Conditions | hypodiploid nuclei frequency, [1] [%] | micronucleus frequency, [3] [%] | relative survival, [2]
concentration: 4.5 (µM), S9 metabolic activation: with S9, exposure time: 3-4 hours | 0.24 | 1.24 | 98.6
concentration: 4.5 (µM), S9 metabolic activation: without S9, exposure time: 24 hours | 0.56 | 1.68 | 117
concentration: 5.63 (µM), S9 metabolic activation: with S9, exposure time: 3-4 hours | 0.28 | 1.1 | 70.5
concentration: 5.63 (µM), S9 metabolic activation: without S9, exposure time: 24 hours | 0.48 | 1.24 | 100
concentration: 7.04 (µM), S9 metabolic activation: with S9, exposure time: 3-4 hours | 0.1 | 1.36 | 71.7
concentration: 7.04 (µM), S9 metabolic activation: without S9, exposure time: 24 hours | 0.54 | 1.38 | 134
concentration: 8.8 (µM), S9 metabolic activation: with S9, exposure time: 3-4 hours | 0.22 | 1.16 | 94.2
concentration: 8.8 (µM), S9 metabolic activation: without S9, exposure time: 24 hours | 0.48 | 1.26 | 119
concentration: 11 (µM), S9 metabolic activation: with S9, exposure time: 3-4 hours | 0.34 | 1.22 | 79.3
concentration: 11 (µM), S9 metabolic activation: without S9, exposure time: 24 hours | 0.8 | 1.56 | 98.6
concentration: 13.7 (µM), S9 metabolic activation: with S9, exposure time: 3-4 hours | 0.12 | 1.32 | 78.3
concentration: 13.7 (µM), S9 metabolic activation: without S9, exposure time: 24 hours | 0.76 | 1.34 | 95.1
concentration: 17.2 (µM), S9 metabolic activation: with S9, exposure time: 3-4 hours | 0.26 | 1.14 | 72.9
concentration: 17.2 (µM), S9 metabolic activation: without S9, exposure time: 24 hours | 0.66 | 1.18 | 113
concentration: 21.5 (µM), S9 metabolic activation: with S9, exposure time: 3-4 hours | 0.3 | 0.9 | 77.1
concentration: 21.5 (µM), S9 metabolic activation: without S9, exposure time: 24 hours | 0.72 | 1.3 | 109
concentration: 26.8 (µM), S9 metabolic activation: with S9, exposure time: 3-4 hours | 0.34 | 2.16 | 77.1
concentration: 26.8 (µM), S9 metabolic activation: without S9, exposure time: 24 hours | 0.8 | 1.86 | 102
concentration: 33.6 (µM), S9 metabolic activation: with S9, exposure time: 3-4 hours | 0.2 | 2.38 | 82.1
concentration: 33.6 (µM), S9 metabolic activation: without S9, exposure time: 24 hours | 0.8 | 1.9 | 105
concentration: 41.9 (µM), S9 metabolic activation: with S9, exposure time: 3-4 hours | 0.38 | 2.22 | 76.2
concentration: 41.9 (µM), S9 metabolic activation: without S9, exposure time: 24 hours | 0.8 | 1.62 | 112
concentration: 52.4 (µM), S9 metabolic activation: with S9, exposure time: 3-4 hours | 0.36 | 2.04 | 67.5
concentration: 52.4 (µM), S9 metabolic activation: without S9, exposure time: 24 hours | 0.72 | 1.76 | 105
concentration: 65.5 (µM), S9 metabolic activation: with S9, exposure time: 3-4 hours | 0.1 | 1.22 | 86.2
concentration: 65.5 (µM), S9 metabolic activation: without S9, exposure time: 24 hours | 0.98 | 2.6 | 94.7
concentration: 81.9 (µM), S9 metabolic activation: with S9, exposure time: 3-4 hours | 0.16 | 1.14 | 79.8
concentration: 81.9 (µM), S9 metabolic activation: without S9, exposure time: 24 hours | 1.04 | 2.72 | 102
concentration: 102 (µM), S9 metabolic activation: with S9, exposure time: 3-4 hours | 0.34 | 1.88 | 71.7
concentration: 102 (µM), S9 metabolic activation: without S9, exposure time: 24 hours | 1.14 | 2.6 | 104
concentration: 128 (µM), S9 metabolic activation: with S9, exposure time: 3-4 hours | 0.08 | 1.22 | 67.3
concentration: 128 (µM), S9 metabolic activation: without S9, exposure time: 24 hours | 1.12 | 2.08 | 89.9
concentration: 160 (µM), S9 metabolic activation: with S9, exposure time: 3-4 hours | 0.22 | 1.6 | 46.3
concentration: 160 (µM), S9 metabolic activation: without S9, exposure time: 24 hours | 1.26 | 2.58 | 107
concentration: 200 (µM), S9 metabolic activation: with S9, exposure time: 3-4 hours | 0.22 | 1.58 | 58.9
concentration: 200 (µM), S9 metabolic activation: without S9, exposure time: 24 hours | 1.24 | 2.34 | 102
